Publication PMC4336329 (PLoS ONE, 2015)
Hit rate of the full screen: of about 310,000 compounds, about 14,000 (4.5%) showed an effect of 50% or more. The effect is printed as a negative number. This is one part of the list. Where a SMILES comes first, the peptide text is derived from it. [ ]: non-standard residue; d: D form. The star is where a group is joined. ξ: configuration not given here. Boc = CC(C)(C)OC(=O)*; ξP = O=C(O)C1CCCN1

target: human ether-à-go-go-related gene (hERG) potassium channel (human, UniProt Q12809); test: primary screen, population patch clamp on CHO cells stably expressing hERG
Sequence (Q12809 whole entry, looked up): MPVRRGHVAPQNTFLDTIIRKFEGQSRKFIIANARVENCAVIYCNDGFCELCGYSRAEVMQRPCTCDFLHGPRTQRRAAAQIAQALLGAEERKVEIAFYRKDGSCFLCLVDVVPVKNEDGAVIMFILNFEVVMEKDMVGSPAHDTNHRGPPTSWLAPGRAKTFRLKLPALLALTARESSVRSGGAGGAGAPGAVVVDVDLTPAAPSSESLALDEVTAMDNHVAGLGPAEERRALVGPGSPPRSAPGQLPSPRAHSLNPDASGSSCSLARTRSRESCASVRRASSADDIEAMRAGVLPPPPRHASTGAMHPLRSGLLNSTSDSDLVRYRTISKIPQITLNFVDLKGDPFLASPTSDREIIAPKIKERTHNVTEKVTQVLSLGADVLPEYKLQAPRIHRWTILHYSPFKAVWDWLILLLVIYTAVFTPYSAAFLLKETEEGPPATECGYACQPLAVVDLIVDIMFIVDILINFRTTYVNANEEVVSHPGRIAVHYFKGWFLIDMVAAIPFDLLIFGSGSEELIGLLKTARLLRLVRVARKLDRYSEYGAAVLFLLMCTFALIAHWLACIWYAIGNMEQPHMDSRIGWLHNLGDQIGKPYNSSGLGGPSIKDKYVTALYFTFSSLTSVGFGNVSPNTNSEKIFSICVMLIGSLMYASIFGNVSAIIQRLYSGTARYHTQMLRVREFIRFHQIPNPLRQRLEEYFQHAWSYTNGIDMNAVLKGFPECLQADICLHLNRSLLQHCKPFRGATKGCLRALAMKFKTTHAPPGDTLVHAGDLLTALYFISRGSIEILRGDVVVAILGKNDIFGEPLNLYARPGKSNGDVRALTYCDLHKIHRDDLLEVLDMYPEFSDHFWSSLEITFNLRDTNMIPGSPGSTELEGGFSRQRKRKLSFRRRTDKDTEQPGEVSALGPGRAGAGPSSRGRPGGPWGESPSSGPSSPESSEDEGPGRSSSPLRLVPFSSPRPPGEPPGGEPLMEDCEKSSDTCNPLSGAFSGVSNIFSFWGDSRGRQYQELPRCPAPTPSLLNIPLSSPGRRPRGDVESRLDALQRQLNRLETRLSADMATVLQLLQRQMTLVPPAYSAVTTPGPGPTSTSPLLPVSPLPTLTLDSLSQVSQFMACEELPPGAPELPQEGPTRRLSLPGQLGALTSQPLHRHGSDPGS
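Further: peak tail current of the secondary pulse compared with the same well before compound.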

Compound | hERG current change (%, negative = inhibition) at 10uM
Cc1nonc1NC(=O)Nc1cccnc1 | -0.462%
C=CCc1cccc(/C=N/NC(=O)c2ccccc2OC)c1O | 14.1%
Cc1nn(CC#N)c(=O)n1-c1ccc(F)cc1 | 10.4%
CCCSc1nc2sc3c(c2c(=O)[nH]1)CCN(Cc1ccccc1)C3 | -13.9%
O=S(=O)(Nc1ccncc1Cl)c1ccccc1 | -13.8%
O=C(Oc1c(Cl)cc(Cl)c2cccnc12)c1ccco1 | -6.09%
O=[N+]([O-])c1ccc(NC(=S)N2CCCC2)cc1 | 1.8%
CC(=O)c1cn(CCOc2ccc(F)cc2)c2ccccc12 | -3.33%
CCOC(=O)C1C(c2ccc3c(c2)OCO3)NC(=O)NC1(O)C(F)(F)F (stereo not drawn) | 8.93%
O=c1cc(CN2CC=C(c3ccccc3)CC2)c2c(ccc3ccccc32)o1 | -0.374%
CCOC(=O)c1c(C)n(C)c2ccc(OC(=O)c3ccoc3)cc12 | 3.02%
N#C/C(=C\c1ccc(N2CCOCC2)o1)C(=O)NCC1CCCO1 (stereo not drawn) | -0.262%
CCN(CC)CCCNCC(=O)Nc1ccc(OC)c(Cl)c1.O=C(O)C(=O)O | -15.5%
O=C1c2ccccc2CCC12N=NCC2c1ccc(Cl)cc1 (stereo not drawn) | -4.7%
CC(=O)N1CCOc2ccc(S(=O)(=O)N3CCC(C(=O)NCc4ccccc4)CC3)cc21 | 8.85%
Cc1cc(C)c(NC(=O)CN2C(=O)NC3(CCCCC3)C2=O)c(C)c1 | 0.115%
Cc1ccccc1CN(c1ccc(C(=O)NCc2ccccn2)cc1)S(C)(=O)=O | -35.4%
OC(COCC(F)(F)C(F)(F)C(F)(F)C(F)F)Cn1c2ccc(Cl)cc2c2cc(Cl)ccc21 (stereo not drawn) | -9.49%
CCOc1cc2[nH]c(=S)n(Cc3ccc(C(=O)N4CCN(C)CC4)cc3)c(=O)c2cc1OCC | 11.4%

Compound | hERG current change (%, negative = inhibition) at 10uM
Cc1ccc(SCC(=O)NCCN2C(=O)CSC2=O)cc1C | 1.73%
S=C(Nc1ccc(Cl)cc1)NC1CC2CCCC(C1)N2C1CC1 (stereo not drawn) | -32.9%
Cn1c(CNC(=O)Nc2cccc(Cl)c2)nnc1SCc1ccccc1 | -1.75%
COc1c2ccoc2c(OC[C@@H](O)C(C)(C)O)c2oc(=O)ccc12 | 7.95%
Clc1nccc(N2CCN(c3ccccc3Cl)CC2)n1 | -11.4%
O=C(CN1CCC(C(=O)c2ccc3c(c2)OCCO3)CC1)NC1CCCC1 | 5.27%
CC12CCC(=O)N1C(C(=O)Nc1cc(C(F)(F)F)ccc1N1CCOCC1)CS2 (stereo not drawn) | -10.1%
CC(C)CNC(=S)Nc1ccc(F)cc1 | 12.2%
CC(=O)Nc1ccc(N2C(=O)c3cccc(NC(C)=O)c3C2=O)cc1 | 23.3%
COc1ccccc1Nc1ccc([N+](=O)[O-])cn1 | 12%
Cc1sc2ncnc(SCC(=O)N3CCCC(C(N)=O)C3)c2c1C (stereo not drawn) | -0.398%
CCN1CCN(C(c2cccnc2)c2c(NC(=O)c3ccco3)sc(C)c2C)CC1 (stereo not drawn) | -58.4%
COC(=O)CNC(=O)C1CCCN1C(=O)CNC(=O)OC(C)(C)C (stereo not drawn) (Boc-Gly-[ξP]-Gly-OMe) | 10.2%
Cc1ccc(NS(=O)(=O)c2cccc(C(=O)N3CCCCCCC3)c2)cc1 | -34.1%
Cc1cccc(NC(=S)N2CCN(Cc3ccc4c(c3)OCO4)CC2)c1C | -16.1%
O=c1oc(CCCO)cc2ccc(/C=C/c3cccc([N+](=O)[O-])c3)cc12 | 11%
Cc1ccc(N(C(=O)CNC(=O)c2ccco2)C(C(=O)NCC2CCCO2)c2ccccc2)c(C)c1 (stereo not drawn) | -24.6%
Cc1ccc(C)c(CSc2nnc(CCN)o2)c1.Cl | 3.88%
CCc1ccc2nc(NC(=O)Cn3cnc4ccccc4c3=O)sc2c1 | 9.75%

Compound | hERG current change (%, negative = inhibition) at 10uM
O=C(Nc1cccc(NC(=O)c2ncn[nH]2)c1)c1cccc(Cl)c1 | 24%
Cc1ccc(NC(=O)CN(C)C(C)C(=O)N2CC(C)CC(C)C2)cc1 (stereo not drawn) | 2.37%
O=C(Nc1ccccc1C(=O)O)c1cc(S(=O)(=O)Nc2ccccc2)ccc1Cl | 22.5%
COc1ccc(NC(=O)CSCC(=O)Nc2nnc(C)s2)cc1 | 19.3%
CCC(CC)=NNC(=O)c1ccccc1OCc1ccc(F)cc1 | -15.1%
CCO/C=C/C(O)(CNC(=O)COc1ccccc1F)C(F)(F)F (stereo not drawn) | 10.5%
COc1cccc(C(=O)N=c2sc3cc(S(C)(=O)=O)ccc3n2C)c1 | 34.3%
Cc1cccc(C)c1NC(=S)Nc1ccccc1C(=O)NCc1ccco1 | -6.81%
Cc1nn(-c2ccc(N3CCCCC3)nn2)c(C)c1CCC(=O)Nc1ccc(F)c(F)c1 | -29.5%
COc1cc2c(cc1OC)/C(=C/C#N)NC(C)(C)C2 | 3.41%
O=C(c1cc2cc(Cl)ccc2[nH]1)N1CCN(c2ccc(F)cc2)CC1 | 24.6%
CCCn1c(NC(=O)c2ccc(C)cc2)nc2ccccc21 | -22.8%
CCC(=O)c1cc2c(C)cc(=O)oc2c(C)c1OC(C)=O | -12.7%
S=C1NC(c2ccccc2)N2C(=S)NC(c3ccccc3)N12 (stereo not drawn) | 3.59%
COc1ccccc1CCNC1CCC(C)CC1 (stereo not drawn) | -17.3%
COc1ccccc1N1CCN(C(=O)COc2ccc(S(=O)(=O)NC(C)(C)C)cc2)CC1 | 4.58%
CC(C)n1cnc2c(Nc3cccc(F)c3)nc(NCCO)nc21 | -10.8%
Cc1cc(OCc2ccccc2)ccc1/C(O)=C1/C(=O)C(=O)N(Cc2cccnc2)C1c1ccncc1 (stereo not drawn) | 7.21%
CCCCNC(=O)C(NS(=O)(=O)c1cccc2nsnc12)c1ccccc1 (stereo not drawn) | 0.33%
